Reference: PMC4336329 (PLoS ONE, 2015)
Out of some 310,000 compounds screened, about 14,000 (4.5%) showed an effect of 50% or more. Effects have a minus sign here. The list shows a part of the results.

target: human ether-à-go-go-related gene (hERG) potassium channel (human, UniProt Q12809); experiment: primary screen, population patch clamp on CHO cells stably expressing hERG
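Further: peak tail current of the secondary pulse compared with the same well before compound.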

Chain of human ether-à-go-go-related gene (hERG) potassium channel (Q12809 whole entry, looked up): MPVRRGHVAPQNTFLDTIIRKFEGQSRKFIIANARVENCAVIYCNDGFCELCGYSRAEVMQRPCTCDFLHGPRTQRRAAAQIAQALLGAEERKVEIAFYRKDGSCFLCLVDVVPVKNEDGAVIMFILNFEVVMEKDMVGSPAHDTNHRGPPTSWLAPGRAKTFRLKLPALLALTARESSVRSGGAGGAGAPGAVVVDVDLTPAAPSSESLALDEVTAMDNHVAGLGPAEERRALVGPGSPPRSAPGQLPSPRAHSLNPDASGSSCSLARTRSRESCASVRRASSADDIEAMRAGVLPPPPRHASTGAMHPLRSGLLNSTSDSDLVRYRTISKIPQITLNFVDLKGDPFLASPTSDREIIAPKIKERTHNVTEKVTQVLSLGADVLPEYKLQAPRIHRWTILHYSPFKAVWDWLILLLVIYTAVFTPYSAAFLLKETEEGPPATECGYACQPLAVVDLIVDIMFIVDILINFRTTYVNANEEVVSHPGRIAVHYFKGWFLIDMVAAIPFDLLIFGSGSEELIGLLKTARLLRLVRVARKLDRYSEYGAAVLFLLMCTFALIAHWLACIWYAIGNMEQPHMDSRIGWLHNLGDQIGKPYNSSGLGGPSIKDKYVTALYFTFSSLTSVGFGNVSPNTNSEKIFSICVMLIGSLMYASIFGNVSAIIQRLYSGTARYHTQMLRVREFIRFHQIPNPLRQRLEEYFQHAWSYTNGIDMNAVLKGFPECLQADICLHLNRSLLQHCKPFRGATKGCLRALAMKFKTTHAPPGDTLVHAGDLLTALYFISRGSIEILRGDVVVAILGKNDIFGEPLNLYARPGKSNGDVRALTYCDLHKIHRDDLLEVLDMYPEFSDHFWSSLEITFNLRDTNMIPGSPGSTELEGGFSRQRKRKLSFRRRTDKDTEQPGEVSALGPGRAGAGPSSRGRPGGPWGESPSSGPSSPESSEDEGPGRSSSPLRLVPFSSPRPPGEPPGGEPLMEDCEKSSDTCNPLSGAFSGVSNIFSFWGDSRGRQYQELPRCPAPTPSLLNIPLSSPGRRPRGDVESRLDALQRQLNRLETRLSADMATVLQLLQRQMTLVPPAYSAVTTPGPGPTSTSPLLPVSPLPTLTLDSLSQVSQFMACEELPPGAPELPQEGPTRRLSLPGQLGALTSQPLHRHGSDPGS

| SMILES | hERG current change (%, negative = inhibition) at 10uM |
| --- | --- |
| COc1ccccc1CC(=O)N(CCC1=CCCCC1)c1c(N)n(Cc2ccccc2)c(=O)[nH]c1=O | -12% |
| Cc1[nH]c(=O)[nH]c(=O)c1S(=O)(=O)NCC12CC3CC(CC(C3)C1)C2 | -0.676% |
| COc1ccc(/C=C2\CC/C(=C\c3ccc(OC)cc3OC)C2=O)c(OC)c1 | -3.75% |
| CN(C)Cc1ccc(CNC(=O)c2ccc(Cl)c(S(=O)(=O)NC3CC3)c2)cc1 | 7.46% |
| CC(Oc1cc(-c2ccccc2)cc2ccccc12)C(=O)N1CCOCC1 (centres unmarked) | 1.68% |
| COc1ccc(C(=O)C2CCCN(C(=O)c3cccc(N(C)C)c3)C2)cc1OC (centres unmarked) | 6.64% |
| C=CCOC(=O)Cn1cnc2c(sc3nc(C)cc(C)c32)c1=O | 9.96% |
| Cc1cc(Cl)ccc1NC(=S)NCc1ccccc1Cl | 19.4% |
| Cn1c(=O)c(=O)n(C)c2cc(S(=O)(=O)N3CCN(c4ccccc4F)CC3)ccc21 | 3.38% |
| O=C(N/N=C/c1ccccc1O)c1cc(=O)[nH]c2ccccc12 | -1.25% |
| Cc1ccc(C2=NC3(CCCCC3)NC2=S)cc1 | 5.86% |
| CCCOc1ccc(C(=O)Nc2ccc(S(=O)(=O)N3C[C@@H]4C[C@@H](C3)c3cccc(=O)n3C4)cc2)cc1 | -0.566% |
| CC(Sc1nc2ccc(C(=O)c3ccccc3)cc2[nH]1)C(=O)O (centres unmarked) | 15.7% |
| CSCCC(NC(=O)c1ccc(Cl)cc1Cl)C(=O)OC1CCCCC1=O (centres unmarked) | -26.7% |
| N#Cc1cc(-c2ccccc2)oc1NC(=O)c1ccco1 | -22.2% |
| COc1cc(OC)c(NS(=O)(=O)c2cc(C(=O)OCC(=O)NCC3CCCO3)ccc2OC)cc1Cl (centres unmarked) | 5% |
| CC(=O)Oc1ccc(/C=N/NC2=NS(=O)(=O)c3ccccc32)cc1 | 20.6% |
| C=CCn1cc(C(=O)NCCOC)c(=O)c2cc(S(=O)(=O)N(CC)CC)ccc21 | -13.9% |
| Cc1ccc(C2(C)NC(=O)N(CC(=O)Nc3ccc(N4CCOCC4)cc3N3CCOCC3)C2=O)cc1 (centres unmarked) | -4.17% |
| COc1ccc(OC)c(S(=O)(=O)Nc2cc3c4c(c2)CC(=O)N4CCC3)c1 | 10.6% |
| CN(CCc1ccccn1)C(=O)CC1C(=O)NCCN1Cc1ccccc1C(F)(F)F (centres unmarked) | -0.462% |
| O=C1CSC(=NC(=O)c2ccccc2)N1 | -4.42% |

| SMILES | hERG current change (%, negative = inhibition) at 10uM |
| --- | --- |
| Cc1cc(C)n2nc(CNS(=O)(=O)c3cccc([N+](=O)[O-])c3)nc2n1 | 21.2% |
| Br.COc1cccc(C(=O)Cn2c(NCCCO)nc3ccccc32)c1 | 10.1% |
| COC(=O)c1ccc(CSc2nc3c(c(=O)n2-c2ccc(F)cc2)SCC3)o1 | -5.5% |
| O=C(COc1ccc(Br)cc1)NNC(=S)NCc1ccccc1 | 8.46% |
| CN(CCO)c1cc(NCCCN2CCC(Cc3ccccc3)CC2)c2nonc2c1[N+](=O)[O-] | -38% |
| COc1cc(C(=O)NCCCn2ccnc2)cc(OC)c1OC.Cl | 20.6% |
| Cl.O=C(CNCC1CCCO1)Nc1ccccc1-n1cccc1 (centres unmarked) | -3.97% |
| CCCCOC(=O)Nc1nnc(CCc2ccccc2)s1 | 12% |
| O=C(O)c1cccn1Cc1ccccc1F | 3.84% |
| Cc1nc(CSc2n[nH]c(=O)n2-c2ccccc2)cs1 | 9.9% |
| CCOC(=O)C1(Cc2ccc(OC)cc2)CCN(C(=O)CN2CCOC2=O)CC1 | 24.2% |
| CCC(=O)Nc1ccc2oc(-c3ccccc3Br)nc2c1 | 8.17% |
| COc1ccc(NC(=O)c2cc3c(=O)n(C)c4ccccc4c3s2)cc1OC | 13.5% |
| Cc1ccccc1N(CC(=O)N1CCOCC1)S(C)(=O)=O | 27.9% |
| O=C(O)C1C2C=CC(O2)C1C(=O)NC1CCCc2ccccc21 (centres unmarked) | 9.61% |
| Cc1[nH]c2ccccc2c1/C=C/C(=O)c1ccncc1 | 11.4% |
| O=C(O)CN1C(=O)/C(=C\c2cccc(OCc3ccc(F)cc3)c2)SC1=S | 14.9% |
| O=C(NCc1ccccc1)/C(=C/c1ccco1)NC(=O)c1ccco1 | -18.1% |
| O=C(COC(=O)COc1cccc(C(F)(F)F)c1)NC1CCS(=O)(=O)C1 (centres unmarked) | 7.36% |
| O=C(C[n+]1ccc2ccccc2c1)c1cccc2ccccc12.[Br-] | -72.8% |
| CCOC(=O)Cn1c(-c2nonc2NC(=O)c2ccccc2F)nc2ccccc21 | 5.56% |
| COc1ccc(N2CCN(C3CCCN(C(=O)C4=C(C)OCCO4)C3)CC2)cc1 (centres unmarked) | -11.7% |

| SMILES | hERG current change (%, negative = inhibition) at 10uM |
| --- | --- |
| C=CCn1c(SCC(=O)/C(C#N)=C(\C)N)nc2sc(CC)cc2c1=O | 13.3% |
| CCN(C(=O)COC(=O)/C=C/c1ccccc1)C1CCCCC1 | -24.2% |
| Cc1ccc(-n2nc3c(=O)n(CC(=O)NCCc4ccco4)nc(C)c3c2C)cc1 | -6.64% |
| Cc1ccc(S(=O)(=O)CC(=O)c2ccc([N+](=O)[O-])cc2)cc1 | -14.5% |
| Cc1cccc(-c2ccc(C=Nc3c(C)n(C)n(-c4ccccc4)c3=O)o2)c1 | -12.7% |
| CN1C(=O)[C@@H]2[C@@H]3C[C@@H]([C@H]4ON=C(c5ccccc5OCC#N)[C@@H]34)[C@@H]2C1=O | -5.89% |
| Cc1ccc(S(=O)(=O)NCCC(=O)Nc2nnc(C3CC3)s2)cc1C | 9.34% |
| COc1ccc(Cc2nc3ccc(C(=O)N4CCN(C)C(C)C4)cc3o2)cc1OC (centres unmarked) | -1.59% |
| O=S(=O)(c1cnccc1N1CCN(CCO)CC1)N1CCCCC1 | 3.21% |
| Cc1cccc(N(C(=O)Cn2nnc3ccccc32)C(C(=O)NCc2ccco2)c2ccncc2)c1 (centres unmarked) | 7.4% |
| O=C(Nc1c(-c2ccccc2)nc2ncccn12)c1cc2ccccc2oc1=O | -12.2% |
| O=C(C1Cc2ccccc2CN1C(=O)c1ccco1)N1CCN(c2ccccc2)CC1 (centres unmarked) | -44.2% |
| COc1cc(C(C(=O)NC(C)(C)C)N(C(=O)CNC(=O)c2cccs2)c2cccnc2)cc(OC)c1OC (centres unmarked) | 17.7% |
| CCCc1nnc(SCC(=O)N2CCCC2)n1Cc1ccco1 | 1.2% |
| COc1cccc(-n2ccn(CC(=O)NCCc3ccccc3)c(=O)c2=O)c1 | 18.5% |
| CC1CCCC(C)N1C(=O)C1CC(c2ccc(F)cc2)=NO1 (centres unmarked) | -7.79% |
| O=C(Nc1ccc(CN2CCOCC2)cc1)c1cccs1 | -8.45% |
| O=C(NCCN1CCOCC1)NC1(C(F)(F)F)Oc2ccc(Cl)cc2O1 (centres unmarked) | -1.06% |
| CCSc1nnc(NC(=O)c2cccs2)s1 | -8.23% |
| COc1cccc(NC(=O)CN(c2ccc(C)cc2)S(=O)(=O)c2c(C)nn(C)c2C)c1 | -17.8% |
| Cc1sc(NC(=O)CSc2nnc(C)c(=O)[nH]2)c(C#N)c1C | 16.9% |
| CC(C)COC(=O)c1cc(-c2ccc(/C=N/n3cnnc3)o2)ccc1Cl | -6.12% |

| SMILES | hERG current change (%, negative = inhibition) at 10uM |
| --- | --- |
| Cc1cc(C)c(NC(=O)c2cc(=O)c3ccccc3o2)c(C)c1 | -0.368% |
| Cc1cc2ncn(CCCCOc3ccccc3)c2cc1C | -6.68% |
| Cc1ccc(C(=O)C(OC(=O)CCC(=O)Nc2cccc(C)c2)c2ccccc2)cc1 (centres unmarked) | 0.916% |
| O=C1CCC(=O)N1c1ccc(-c2nc3sc4c(c3c(=O)o2)CCC4)cc1 | -1.7% |
| Cc1ccc(C)c(SCC(=O)NCC(c2ccco2)N2CCCCC2)c1 (centres unmarked) | -9.42% |
| Cc1ccnc(NC(=O)CNC(=O)c2ccc3c(c2)OCO3)c1 | 9.1% |
| Cc1ccc(NC(=O)c2cc(N3C(=O)C=CC3=O)ccc2N2CCOCC2)cc1Cl | 14.2% |
| COc1cccc(/C=C2\SC(=O)N(CC(=O)NCCCn3ccnc3)C2=O)c1 | -31.6% |
| Cc1ccc(CC(=O)Nc2nccs2)cc1C | 14.3% |
| O=C(NCC(c1ccco1)N1CCCCC1)c1ccc(NS(=O)(=O)c2ccc(F)cc2)cc1 (centres unmarked) | -13% |
| COc1cccc(CC(NC(C)=O)C(=O)NC2CCN(c3nnnn3-c3ccccc3)CC2)c1OC (centres unmarked) | 31.9% |
| COC(=O)CCCCCC(CCC(=O)OC)NC(C)=O (centres unmarked) | 10.6% |
| COc1ccc(Br)cc1/C=C1\Oc2ccccc2NC1=O | 10.1% |
| CCOc1nc2ccccc2cc1C=O | -5.31% |
| Cc1ccc(N(C(=O)Cn2nnc3ccccc32)C(C(=O)NCc2ccco2)c2cccnc2)cc1 (centres unmarked) | -6.28% |
| Nc1ccccc1SCC(=O)Nc1ccc2c(c1)OCO2 | 6.68% |
| CC1(C)O[C@@H]2[C@H](O1)[C@@H](CO)O[C@H]2n1ccc(=O)[nH]c1=O | 17.8% |
| NC(=O)C1CCN(C(=O)/C=C/c2ccco2)CC1 | 16.8% |
| Cc1ccccc1C(O)c1cccnc1 (centres unmarked) | 22.9% |
| COc1ccc(CNC(=O)c2ccc(N(C)S(=O)(=O)c3ccc(C)cc3)cc2)cc1 | -16.8% |
